Assay results published in publication PMC4336329 (PLoS ONE, 2015).
The campaign covered roughly 310,000 compounds. About 2,200 (0.71%) showed an effect of 50% or more. Effects have a minus sign here. The list shows a part of the results.

target: human ether-à-go-go-related gene (hERG) potassium channel (human, UniProt Q12809); assay: primary screen, population patch clamp on CHO cells stably expressing hERG
Sequence (Q12809 whole entry, looked up): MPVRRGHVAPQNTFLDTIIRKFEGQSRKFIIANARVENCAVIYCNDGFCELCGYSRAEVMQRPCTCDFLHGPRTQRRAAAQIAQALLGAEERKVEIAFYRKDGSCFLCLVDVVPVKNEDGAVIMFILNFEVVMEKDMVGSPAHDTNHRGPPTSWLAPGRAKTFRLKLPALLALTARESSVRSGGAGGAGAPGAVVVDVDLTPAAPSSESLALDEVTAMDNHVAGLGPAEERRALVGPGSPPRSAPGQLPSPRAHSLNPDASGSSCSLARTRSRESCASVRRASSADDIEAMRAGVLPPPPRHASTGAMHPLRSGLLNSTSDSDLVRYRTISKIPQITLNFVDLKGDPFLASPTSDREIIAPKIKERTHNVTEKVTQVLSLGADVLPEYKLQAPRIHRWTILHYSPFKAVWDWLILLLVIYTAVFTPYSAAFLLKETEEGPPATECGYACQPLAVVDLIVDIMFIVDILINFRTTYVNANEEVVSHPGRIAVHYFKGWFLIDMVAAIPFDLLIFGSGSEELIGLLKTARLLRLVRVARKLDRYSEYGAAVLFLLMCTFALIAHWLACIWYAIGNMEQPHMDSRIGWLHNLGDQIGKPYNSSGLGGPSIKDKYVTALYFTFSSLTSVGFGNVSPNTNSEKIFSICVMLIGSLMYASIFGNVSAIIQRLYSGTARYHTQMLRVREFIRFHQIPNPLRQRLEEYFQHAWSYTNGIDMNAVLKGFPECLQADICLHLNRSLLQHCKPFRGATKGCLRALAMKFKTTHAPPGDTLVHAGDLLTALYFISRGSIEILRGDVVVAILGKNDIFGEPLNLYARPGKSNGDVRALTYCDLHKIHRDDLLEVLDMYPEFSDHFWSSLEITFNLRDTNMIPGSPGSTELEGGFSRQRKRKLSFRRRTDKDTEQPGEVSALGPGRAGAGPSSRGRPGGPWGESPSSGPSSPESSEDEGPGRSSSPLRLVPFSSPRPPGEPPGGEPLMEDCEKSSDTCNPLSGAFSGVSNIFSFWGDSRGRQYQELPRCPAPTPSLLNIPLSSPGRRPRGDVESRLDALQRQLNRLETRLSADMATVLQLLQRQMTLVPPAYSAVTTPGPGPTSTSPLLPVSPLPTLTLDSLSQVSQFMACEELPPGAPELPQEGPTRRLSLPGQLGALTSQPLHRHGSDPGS

| Structure (SMILES) | hERG current change (%, negative = inhibition) at 1uM [%] |
| --- | --- |
| Cc1ccc(-n2c(=S)sc3c(=O)n(-c4ccc(F)cc4)c(SCC(=O)O)nc32)cc1C | 12 |
| CCN(CC)CCCn1c2c(c(SCC(=O)Nc3nc(C)cs3)nc1=O)CCC2 | -1.1 |
| O=C(c1n[nH]c(=O)c2ccccc12)N1CCN(C2c3ccccc3-c3ccccc32)CC1 | 11.4 |
| O=C(CSc1ccc2c(c1)OCCO2)Nc1ccc(Br)cn1 | 11.8 |
| CCOC(=O)c1cc(NC(=O)NC2CCCCC2)c(C)nc1C | 15.2 |
| CCc1ccc(-c2n[nH]c(=O)c3ccccc23)cc1 | 7.75 |
| Nc1nc(N2CCCCC2)nc(N(c2ccccc2)c2ccccc2)n1 | 15.2 |
| COc1ccccc1-c1noc(-c2ccncc2)n1 | 1.49 |
| Cc1ccccc1S(=O)(=O)N(CC(O)CN1CCCCC1)c1ccccc1 (centres unmarked) | -71.2 |
| COc1ccc(C2=Nn3c(nnc3-c3ccccn3)SC2)cc1 | -19.9 |
| CCOCc1nnc(NC(=O)c2cc(OC)c(OC)c(OC)c2)s1 | 9.69 |
| Cn1nc(C(=O)OCC(=O)c2ccc(Br)cc2)c2ccccc2c1=O | 9.84 |
| CCc1cccc(NC(=O)CSc2nnc(Cc3ccc(OC)cc3)c(=O)[nH]2)c1 | 5.65 |
| COc1ccc(-n2nnc3c(=O)n(Cc4ccccc4C)cnc32)cc1 | 0.996 |
| Cc1ccc(C(=O)N/N=C\c2ccc([N+](=O)[O-])o2)cn1 | 13 |
| Cc1cccc(-c2nsc(SCC(=O)Nc3nccs3)n2)c1 | 16.3 |
| O=C(O)c1cc2n(n1)C(C(F)(F)F)CC(c1ccco1)N2 (centres unmarked) | 13.4 |
| Cc1onc(-c2ccccc2Cl)c1C(=O)NC(=S)Nc1ccc(C(C)(C)C)cc1 | 5.51 |
| CCOc1ccc(NC(=O)CSC2=NN3CCCC(=O)N=C3S2)cc1 | 15.7 |

| Structure (SMILES) | hERG current change (%, negative = inhibition) at 1uM [%] |
| --- | --- |
| CC(C)CN(CCCNC(=O)CC1Oc2ccccc2NC1=O)CC(C)C (centres unmarked) | 2.99 |
| N#CC1=C(N)N(c2ccccc2)C(c2ccccc2)C1(C#N)C#N (centres unmarked) | 1.74 |
| COCCCNC(=O)CN(C1CCCCC1)S(=O)(=O)c1ccc(C)cc1 | 10.4 |
| COc1ccc(/C=C/C=C2\N=C(SC)SC2=O)cc1 | 15.3 |
| Cc1noc(C)c1C(=O)OCC(=O)NC(c1ccccc1)c1ccccc1 | 6.25 |
| CCN1C(=S)N[C@@H](CCc2ccccc2)C(C(=O)OC)=C1C | 14.4 |
| Cc1nn(-c2ccccc2)c(C)c1/C=C/C(=O)OCC(=O)Nc1ccc(S(N)(=O)=O)cc1 | 15.7 |
| COc1cc2c(cc1OC)C(c1cc(Br)ccc1F)N(C(=O)CCl)CC2 (centres unmarked) | 29.2 |
| S=C(NCCN1CCOCC1)N/N=C/c1c2ccccc2cc2ccccc12 | 9.38 |
| CC1(C)CC(=O)C(C=NCCO)=C(O)C1 | 9.26 |
| CSc1ccccc1OCc1cc(C(=O)N(C)C(C)c2ccccn2)no1 (centres unmarked) | -6.89 |
| CS(=O)(=O)c1cccc(C(=O)Nc2cccc(-c3nc4ccccc4[nH]3)c2)c1 | -2.8 |
| CCn1c(SCC(=O)NC(C)(C)C)nnc1-c1ccncc1 | 16.5 |
| CC(=O)c1cccc(CN(C)CC2CCCN(CCc3ccccc3C)C2)c1 (centres unmarked) | 10.2 |
| COc1ccc(/C=N/NC(=O)c2[nH]c3ccc(Cl)cc3c2-c2ccccc2)c(C(=O)O)c1OC | 11 |
| Cc1ccc(S(=O)(=O)n2ccnc2)cc1C | 6.57 |
| O=C1c2ccccc2-c2nnc(-c3ccccc3)cc21 | 5.64 |
| CC(=O)Nc1c2c(nn1-c1cccc(C)c1)CSC2 | 6.43 |
| C=CCc1cccc(/C=N/NC(=O)CNc2ccccc2OC)c1O | 10.9 |

| Structure (SMILES) | hERG current change (%, negative = inhibition) at 1uM [%] |
| --- | --- |
| COc1ccc(N2CC(C(=O)Nc3nnc(SCC(=O)NCc4ccco4)s3)CC2=O)cc1 (centres unmarked) | 14.4 |
| C=CCn1c(SCC(=O)NCCCC)nc2scc(-c3ccco3)c2c1=O | -2.26 |
| O=C(c1ccc(F)cc1)N1CCOC(c2nc(-c3ccc(F)cc3)no2)C1 (centres unmarked) | -6.77 |
| N#C/C(=C\c1c(N2CCN(c3ccccc3)CC2)nc2ccccn2c1=O)S(=O)(=O)c1ccccc1 | 14.1 |
| CCc1ccc(OCC(=O)NCCc2ccc3c(c2)OCCO3)cc1 | 7.4 |
| O=C(COc1ccccc1[N+](=O)[O-])N(Cc1ccccc1)c1ccccn1 | 9.8 |
| CC(=O)c1ccc(N(CC(=O)NC2CCCCC2)C(=O)CNC(=O)c2ccco2)cc1 | 8.49 |
| COc1ccc(-n2c(/C=C3\C(=O)N(C)c4ccccc43)nc3ccccc3c2=O)cc1 | 13.6 |
| CC(=O)Nc1ccc(Oc2nc(-c3cccnc3)nc3sc4c(c23)CCCC4)cc1 | 12.6 |
| Cc1ccc(OCCSc2ncnc3sc(C)c(C)c23)cc1C | 3.14 |
| COc1ccc(C(=O)Nn2cnc3ccccc3c2=O)cc1[N+](=O)[O-] | 9.23 |
| O=C(COc1nc2ccccc2nc1N1CCOCC1)Nc1cccc(S(=O)(=O)N2CCCCC2)c1 | 9.03 |
| CCCCN(Cc1cc2cc(OC)ccc2[nH]c1=O)C(=O)c1ccccn1 | -13.8 |
| O=C(CN(c1ccc(F)cc1)S(=O)(=O)c1ccccc1)NCCSC1CCCCC1 | -0.554 |
| COc1cc(OC)cc(C(=O)Nc2ccccc2-c2nnn(CC(=O)Nc3cc(C)on3)n2)c1 | 3.04 |
| O=C(N/N=C1/CC2C=CCC12)c1ccco1 (centres unmarked) | 0.749 |
| COc1ccc(N(C)S(=O)(=O)c2cccc(C(=O)NC3CCC(C)CC3)c2)cc1 (centres unmarked) | -11.1 |
| COc1ccc(CNC(=O)c2csc(Cc3ccc(OC)cc3)n2)cc1 | -3.67 |
